# This is one part of the list.
# B1: GS13686A-pdi-553-26-553 (Parabacteroides distasonis) (protein)
# chain: NENPDKPTDDVNYNMNEPRLASTLRGGLIIEGNVEQRLKPLQIDFYSQMTVDGGGWGTKNYIQDDEWNNLVWEEYLKQIASINIVIRSLTEKDKDAYANTIAFARIWRVYVHTLAADKFGPMPFPAYEIVEANPPYKSLKDIYDEYFRELDAAINGFNDSAQPIFSDAGIDLIYKNDVSKWKRFANSLRLRLAVRLTEVDQEKCIAEANAAISSPAGLISDKADNAYMPPKADGSWGQDYNYTMFQITWSGPICMSKSVEKLVTNIGGVAWPQGVVNQTSGVAVSSVHPEKVDPRAPKIFQPGIENGDWKGLVYGPKAEEANTGIYQSKQCAELGFIIKDGYPYKSRPYDLFLSEEVHFLKAELYARGFIAGDAKSEYEAGVRASFATWGVTSEVDDYLTSTEKNEAGTSARYDDQQGAGNTALEKIITQKYIAGIPDLAQEGWNDKRRLNLPRLDVAVYRDQAVYNNNDKDILKSANFIKRMRYPTKESLINATEYEKGKSMLGGKGDIVSTPLWWDKNSNYCTSSK
# Columns and labels:
# Experiment in all cases: glycan array binding signal (z-score within array); higher = stronger binding
# Conditions in all cases: glycan notation: IUPAC condensed, linker removed
# [1] = target: Gal(b1-3)[Fuc(a1-4)]GlcNAc(b1-6)GalNAc
# Outline: (§1)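 Glycan array data came from 3228 arrays in the Consortium for Functional Glycomics database, and only arrays with an available protein sequence were kept. Glycan names were put into IUPAC-condensed notation, and columns mapping to the same glycan were averaged. The binding signal is a within-array Z-score, averaged across arrays of one protein sequence run at different concentrations or buffers and across linkers. A negative Z-score can be read as non-binding.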
# [2] = target: Gal(b1-3)[GlcNAc(b1-6)]GalNAc
# Outline: as §1
# [3] = target: Gal(b1-3)[Neu5Ac(a2-6)]GalNAc
# Outline: as §1
# [4] = target: Gal(b1-3)[Neu5Ac(a2-6)]GlcNAc(b1-4)Gal(b1-4)Glc
# Outline: as §1
# [5] = target: Gal(b1-3)[Neu5Ac(b2-6)]GalNAc
# Outline: as §1
# Gal(b1-4)Gal = target: Gal(b1-4)Gal
# Outline: as §1
# [6] = target: Gal(b1-4)GalNAc(a1-3)[Fuc(a1-2)]Gal(b1-4)GlcNAc
# Outline: as §1
# [7] = target: Gal(b1-4)GalNAc(b1-3)[Fuc(a1-2)]Gal(b1-4)GlcNAc
# Outline: as §1
# Gal(b1-4)Glc = target: Gal(b1-4)Glc
# Outline: as §1
# Gal(b1-4)Glc6S = target: Gal(b1-4)Glc6S
# Outline: as §1
# Gal(b1-4)GlcNAc = target: Gal(b1-4)GlcNAc
# Outline: as §1
# [8] = target: Gal(b1-4)GlcNAc(a1-6)Gal(b1-4)GlcNAc
# Outline: as §1
# Gal(b1-4)GlcNAc(b1-2)Man = target: Gal(b1-4)GlcNAc(b1-2)Man
# Outline: as §1
# [9] = target: Gal(b1-4)GlcNAc(b1-2)Man(a1-3)Man(b1-4)GlcNAc(b1-4)GlcNAc
# Outline: as §1
# [10] = target: Gal(b1-4)GlcNAc(b1-2)Man(a1-3)[Gal(b1-4)GlcNAc(b1-2)Man(a1-6)]Man(b1-4)GlcNAc(b1-4)GlcNAc
# Outline: as §1
# [11] = target: Gal(b1-4)GlcNAc(b1-2)Man(a1-3)[Gal(b1-4)GlcNAc(b1-2)Man(a1-6)]Man(b1-4)GlcNAc(b1-4)[Fuc(a1-6)]GlcNAc
# Outline: as §1
# [12] = target: Gal(b1-4)GlcNAc(b1-2)Man(a1-3)[Gal(b1-4)GlcNAc(b1-2)Man(a1-6)][Gal(b1-4)GlcNAc(b1-4)]Man(b1-4)GlcNAc(b1-4)[Fuc(a1-6)]GlcNAc
# Outline: as §1
# [13] = target: Gal(b1-4)GlcNAc(b1-2)Man(a1-3)[Gal(b1-4)GlcNAc(b1-2)Man(a1-6)][GlcNAc(b1-4)]Man(b1-4)GlcNAc(b1-4)[Fuc(a1-6)]GlcNAc
# Outline: as §1
# [14] = target: Gal(b1-4)GlcNAc(b1-2)Man(a1-3)[GlcNAc(b1-2)Man(a1-6)]Man(b1-4)GlcNAc(b1-4)GlcNAc
# Outline: as §1
# [15] = target: Gal(b1-4)GlcNAc(b1-2)Man(a1-3)[GlcNAc(b1-4)][Gal(b1-4)GlcNAc(b1-2)Man(a1-6)]Man(b1-4)GlcNAc(b1-4)GlcNAc
# Outline: as §1
# [16] = target: Gal(b1-4)GlcNAc(b1-2)Man(a1-3)[Man(a1-6)]Man(b1-4)GlcNAc(b1-4)GlcNAc
# Outline: as §1
# [17] = target: Gal(b1-4)GlcNAc(b1-2)Man(a1-6)Man(b1-4)GlcNAc(b1-4)GlcNAc
# Outline: as §1
# [18] = target: Gal(b1-4)GlcNAc(b1-2)Man(a1-6)[GlcNAc(b1-2)Man(a1-3)]Man(b1-4)GlcNAc(b1-4)GlcNAc
# Outline: as §1
# [19] = target: Gal(b1-4)GlcNAc(b1-2)Man(a1-6)[Man(a1-3)]Man(b1-4)GlcNAc(b1-4)GlcNAc
# Outline: as §1
# [20] = target: Gal(b1-4)GlcNAc(b1-2)[Gal(b1-4)GlcNAc(b1-4)]Man(a1-3)[Gal(b1-4)GlcNAc(b1-2)Man(a1-6)]Man(b1-4)GlcNAc(b1-4)GlcNAc
# Outline: as §1
# [21] = target: Gal(b1-4)GlcNAc(b1-2)[Gal(b1-4)GlcNAc(b1-4)]Man(a1-3)[Gal(b1-4)GlcNAc(b1-2)[Gal(b1-4)GlcNAc(b1-6)]Man(a1-6)]Man(b1-4)GlcNAc(b1-4)GlcNAc
# Outline: as §1
# [22] = target: Gal(b1-4)GlcNAc(b1-2)[Gal(b1-4)GlcNAc(b1-4)]Man(a1-3)[GlcNAc(b1-4)][Gal(b1-4)GlcNAc(b1-2)Man(a1-6)]Man(b1-4)GlcNAc(b1-4)GlcNAc
# Outline: as §1
# [23] = target: Gal(b1-4)GlcNAc(b1-2)[Gal(b1-4)GlcNAc(b1-4)]Man(a1-3)[GlcNAc(b1-4)][Gal(b1-4)GlcNAc(b1-2)[Gal(b1-4)GlcNAc(b1-6)]Man(a1-6)]Man(b1-4)GlcNAc(b1-4)GlcNAc
# Outline: as §1
# [24] = target: Gal(b1-4)GlcNAc(b1-2)[Gal(b1-4)GlcNAc(b1-6)]Man(a1-6)[Gal(b1-4)GlcNAc(b1-2)Man(a1-3)]Man(b1-4)GlcNAc(b1-4)GlcNAc
# Outline: as §1
# [25] = target: Gal(b1-4)GlcNAc(b1-2)[Gal(b1-4)GlcNAc(b1-6)]Man(a1-6)[Gal(b1-4)GlcNAc(b1-2)Man(a1-3)]Man(b1-4)GlcNAc(b1-4)[Fuc(a1-6)]GlcNAc
# Outline: as §1
# [26] = target: Gal(b1-4)GlcNAc(b1-2)[Gal(b1-4)GlcNAc(b1-6)]Man(a1-6)[GlcNAc(b1-4)][Gal(b1-4)GlcNAc(b1-2)Man(a1-3)]Man(b1-4)GlcNAc(b1-4)GlcNAc
# Outline: as §1
# [27] = target: Gal(b1-4)GlcNAc(b1-2)[Gal(b1-4)GlcNAc(b1-6)]Man(a1-6)[GlcNAc(b1-4)][Gal(b1-4)GlcNAc(b1-2)[Gal(b1-4)GlcNAc(b1-4)]Man(a1-3)]Man(b1-4)GlcNAc(b1-4)[Fuc(a1-6)]GlcNAc
# Outline: as §1
# [28] = target: Gal(b1-4)GlcNAc(b1-3)Gal(b1-3)GalNAc
# Outline: as §1
# [29] = target: Gal(b1-4)GlcNAc(b1-3)Gal(b1-3)GlcNAc
# Outline: as §1
# [30] = target: Gal(b1-4)GlcNAc(b1-3)Gal(b1-4)Glc
# Outline: as §1
# [31] = target: Gal(b1-4)GlcNAc(b1-3)Gal(b1-4)GlcNAc
# Outline: as §1
# [32] = target: Gal(b1-4)GlcNAc(b1-3)Gal(b1-4)GlcNAc(b1-2)Man(a1-3)[Gal(b1-4)GlcNAc(b1-3)Gal(b1-4)GlcNAc(b1-2)Man(a1-6)]Man(b1-4)GlcNAc(b1-4)GlcNAc
# Outline: as §1
# [33] = target: Gal(b1-4)GlcNAc(b1-3)Gal(b1-4)GlcNAc(b1-2)Man(a1-3)[Gal(b1-4)GlcNAc(b1-3)Gal(b1-4)GlcNAc(b1-2)Man(a1-6)]Man(b1-4)GlcNAc(b1-4)[Fuc(a1-6)]GlcNAc
# Outline: as §1
binder,measurement,setting,value
B1,glycan array binding signal (z-score),[1],0.527
same,glycan array binding signal (z-score),[2],-0.294
same,glycan array binding signal (z-score),[3],0.249
same,glycan array binding signal (z-score),[4],-0.303
same,glycan array binding signal (z-score),[5],1.03
same,glycan array binding signal (z-score),Gal(b1-4)Gal,0.323
same,glycan array binding signal (z-score),[6],-0.285
same,glycan array binding signal (z-score),[7],-0.325
same,glycan array binding signal (z-score),Gal(b1-4)Glc,-0.275
same,glycan array binding signal (z-score),Gal(b1-4)Glc6S,0.015
same,glycan array binding signal (z-score),Gal(b1-4)GlcNAc,-0.162
same,glycan array binding signal (z-score),[8],0.257
same,glycan array binding signal (z-score),Gal(b1-4)GlcNAc(b1-2)Man,-0.001
same,glycan array binding signal (z-score),[9],-0.119
same,glycan array binding signal (z-score),[10],-0.254
same,glycan array binding signal (z-score),[11],-0.043
same,glycan array binding signal (z-score),[12],-0.035
same,glycan array binding signal (z-score),[13],1.35
same,glycan array binding signal (z-score),[14],-0.261
same,glycan array binding signal (z-score),[15],-0.013
same,glycan array binding signal (z-score),[16],-0.017
same,glycan array binding signal (z-score),[17],0.663
same,glycan array binding signal (z-score),[18],0.027
same,glycan array binding signal (z-score),[19],-0.04
same,glycan array binding signal (z-score),[20],-0.193
same,glycan array binding signal (z-score),[21],2.01
same,glycan array binding signal (z-score),[22],-0.074
same,glycan array binding signal (z-score),[23],0.172
same,glycan array binding signal (z-score),[24],0.115
same,glycan array binding signal (z-score),[25],0
same,glycan array binding signal (z-score),[26],0.113
same,glycan array binding signal (z-score),[27],0.178
same,glycan array binding signal (z-score),[28],-0.06
same,glycan array binding signal (z-score),[29],-0.133
same,glycan array binding signal (z-score),[30],0.145
same,glycan array binding signal (z-score),[31],-0.119
same,glycan array binding signal (z-score),[32],0.146
same,glycan array binding signal (z-score),[33],0.153
